The values that follow come from PubChem BioAssay AID1508624 (National Center for Advancing Translational Sciences (NCATS), 2021).

The structures appear in SMILES notation. Among all 48,000 compounds or so, about 120 (0.25%) were called active. Another 4% or so got no clear call; they are omitted. Calls follow the shape of the dose curve; as a rule, active = well fitted activation curve with a large enough effect; inconclusive = small, poorly fitted or top-dose-only effect, or another doubt; inactive = no such curve, though single readings can be large or run the other way. This is one part of the list.

The experiment in a line: Primary qHTS for Identification of Small Molecule Activators of Huntingtin-Antisense Promoter Activity. Also: nearly all actives have a fitted effect of over 55% in size. To be noted: HEK293 HTT-AS promoter firefly luciferase reporter (activity 0% = vehicle and -100% = no light), 24 h; series mostly up to 57.5 µM; activity change, positive = activation: at the top concentration. Summed up: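 HEK293 luciferase promoter-reporter cells (2,500/well) plated 24 h, then compounds added at up to 57.5 uM final for 24 h at 37 °C. Firefly luminescence by Dual-Glo, normalized to vehicle (0%) and zero RLU (-100%).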
For the compound `Cc1ccc(NC(=O)CN(C)S(=O)(=O)c2cccc3nsnc23)c(C)c1`, the “activity change, positive = activation” value is inactive: -0.623%.

Turning to `CC(=O)Nc1ccc(S(=O)(=O)Nc2ccc3c(c2)n(C)c(=O)n3C)c(C)c1`, the “activity change, positive = activation” value is inactive: -14.1%.

For `Cc1cc(C)n(-c2nc3cc(Cl)c(Cl)cc3nc2Nc2c(C)cccc2C)n1`, the “activity change, positive = activation” value was inactive: -7.68%.

As for `Cc1cccc(CNC(=O)c2ccc(Cn3c(SCc4ccccc4)nc4cccnc43)cc2)c1`, the “activity change, positive = activation” value was inactive: 3.45%.

For `CCc1ccc2oc(C(=O)Nc3nc(-c4ccccc4)ns3)c(C)c2c1`, the “activity change, positive = activation” value was inactive: 0.514%.

As to `Cc1ccc(OC(C)C(=O)NCC2(N3CCOCC3)CCCCC2)cc1C` (stereo unspecified), the “activity change, positive = activation” value is inactive: -16.6%.

On to `Cc1c(C(=O)N(C)C)sc2c1c(=O)n(-c1ccc(F)cc1)c(=O)n2CC(=O)N(C)c1ccccc1`, for which the “activity change, positive = activation” value was inactive: -12.8%.

Take `COc1ccccc1CNC(=O)CCC1N=C2c3ccccc3N=C(SCC(=O)NCCc3ccccc3)N2C1=O` (stereo unspecified): the “activity change, positive = activation” value is inactive: 0%.

Regarding `COc1ccc(Cl)cc1NC(=O)c1nc(S(C)(=O)=O)ncc1N(Cc1ccc(C)cc1)Cc1ccco1`, the “activity change, positive = activation” value is inactive: -15.3%.

Turning to `Cc1cc2oc(C(=O)Nc3ccc(S(=O)(=O)Nc4onc(C)c4C)cc3)cc(=O)c2cc1C`, the “activity change, positive = activation” value is inactive: -1.36%.

On to `Cc1ccc(C)c(NC(=O)Cn2c(=O)oc3cc(S(=O)(=O)NCc4ccccc4)ccc32)c1`, for which the “activity change, positive = activation” value was inactive: -32.9%.

For `CCOc1ccc(-n2c(SC(C)C(=O)OC)nc3c([nH]c4ccccc43)c2=O)cc1` (stereo unspecified), the “activity change, positive = activation” value was inactive: -19.6%.

In the case of `NC[C@H](O)c1ccc(O)c(O)c1`, the activity change, positive = activation entry was “inactive”.

Consider `CCN(CC)CCNC(=O)c1ccc(N)cc1`, for which the “activity change, positive = activation” value was inactive: -0.0711%.

In the case of `O=C(CSc1nc(=O)[nH]c2c1CCCC2)NCc1ccc(Cl)cc1`, the “activity change, positive = activation” value is inactive: -2.54%.

In the case of `CCOC(=O)c1c(NC(=O)/C=C/c2ccc(OC)cc2)sc2c1CCC(C)C2` (stereo unspecified), the “activity change, positive = activation” value was inactive: -22%.

For the compound `Cc1ccccc1C(=O)Nc1sc2c(c1C(=O)N1CCC(C)CC1)CCCC2`, the “activity change, positive = activation” value is inactive: -12%.

As to `CCN(CCCNC(=O)c1cc2c(=O)[nH]c3ccc(C)cc3c2s1)Cc1ccccc1`, the “activity change, positive = activation” value is inactive: -25.8%.

For `Cc1cccc(Nc2nc3ccccc3n3c(N)nnc23)c1`, the “activity change, positive = activation” value was inactive: 0.629%.

Take `Cc1cc2n(n1)CCCN2C(=O)Nc1cccc(C)c1C`: the “activity change, positive = activation” value is inactive: -13.3%.

Regarding `OC1(c2ccccc2)CCNCC1`, the “activity change, positive = activation” value was inactive: -3.02%.

Consider `Cc1ccc(Cn2c(=O)c3cccnc3n(Cc3ccc(F)cc3)c2=O)cc1`, for which the “activity change, positive = activation” value was inactive: -15.9%.

As for `COc1cccc(N2CCN(c3ncc4c(n3)CCN(Cc3ccc(Br)cc3)C4)CC2)c1`, the “activity change, positive = activation” value is inactive: -85.4%.

In the case of `COc1ccccc1/C=C/c1nc(C#N)c(NC(C)c2ccccc2)o1` (stereo unspecified), the “activity change, positive = activation” value was inactive: -18.2%.

On to `CC(=O)c1ccc(N2CCN(C(=O)Cn3ncc4c3-c3ccccc3OC4)CC2)cc1`, for which the “activity change, positive = activation” value was inactive: -34.1%.

As to `CCOc1ccc(NC(=O)c2cnn3c(C(F)F)cc(-c4ccc(C)cc4)nc23)cc1`, the “activity change, positive = activation” value was inactive: -15.4%.

Regarding `Cc1c(Cl)cccc1NC(=O)CN1C(=O)CSc2ccc(S(=O)(=O)N3CCCC3)cc21`, the “activity change, positive = activation” value is inactive: -35.8%.

For the compound `CC(=O)c1cc(-c2ccc(F)cc2)n(CCC(=O)NCc2ccc(C)cc2)c1C`, the “activity change, positive = activation” value was inactive: -22.8%.

On to `CCc1ccc(Sc2cc(C(=O)NCCCN3CCCC(C)C3)c3ccccc3n2)cc1` (stereo unspecified), for which the “activity change, positive = activation” value is inactive: -20.9%.

`CC(C)(C)C(=O)OCOC(=O)C1N2C(=O)CC2S(=O)(=O)C1(C)C` (stereo unspecified): the “activity change, positive = activation” value was inactive: -2.42%.

On to `Cc1ccc(NC(=O)CN2CCN(C3CCCCC3)C(=O)C2=O)cc1`, for which the “activity change, positive = activation” value is inactive: -5.61%.

Regarding `Cc1ccccc1CCNCc1c(C(=O)O)c(C)n(Cc2c(F)cccc2Cl)c1C`, the “activity change, positive = activation” value is inactive: -9.34%.

With `O=c1cc(COc2cccc(C(F)(F)F)c2)nc2sc3c(n12)CCCC3`, the “activity change, positive = activation” value is inactive: -11.6%.

Turning to `Cc1ccc(-n2ncc(C(=O)N3CCN(C4CCCCC4)CC3)c2C2CCN(C(=O)OC(C)(C)C)CC2)cc1`, the “activity change, positive = activation” value was inactive: -5.49%.

With `CCOC(=O)c1c(NC(=O)c2ccc(S(=O)(=O)N(C)C)cc2)sc2c1CCN(C)C2`, the “activity change, positive = activation” value was inactive: -17.8%.

`CCCCCCNc1ncnc2c1sc1nc(N3CCOCC3)c3c(c12)CCCC3`: the “activity change, positive = activation” value was inactive: -5.29%.

Regarding `COc1ccc(NC(=O)Cn2c(=O)n(CC3CCCO3)c(=O)c3ccccc32)cc1` (stereo unspecified), the “activity change, positive = activation” value is inactive: -14%.

In the case of `CCCCSCCCNC(=O)c1cc(-c2cccnc2)nc2ccc(S(=O)(=O)N3CCC(C)CC3)cc12`, the “activity change, positive = activation” value was inactive: -4.08%.

In the case of `Cc1oc2ccc(O)c(CN3CCN(Cc4ccccc4)CC3)c2c1C(=O)Nc1cccc(Cl)c1C`, the “activity change, positive = activation” value was inactive: -2.86%.

Regarding `CCCN(C(=O)c1nn(-c2ccc(C)cc2)c(=O)c2c1c1ccccc1n2C)c1ccccc1C`, the “activity change, positive = activation” value is inactive: -4.36%.

In the case of `O=C(Nc1ccc(Oc2ccccc2)cc1)C1CCN(S(=O)(=O)c2ccccc2)CC1`, the “activity change, positive = activation” value is inactive: -24.7%.

`Cc1cccc(NS(=O)(=O)c2nnc(NC(=O)C3CCCCC3)s2)c1`: the “activity change, positive = activation” value was inactive: -25.8%.

With `COc1cc2[nH]c(=O)n(Cc3ccc(C(=O)N4CCN(c5cccc(C)c5C)CC4)cc3)c(=O)c2cc1OC`, the “activity change, positive = activation” value is inactive: -17.2%.

On to `COc1ccc(CNC(=O)c2cc(Nc3ccc(OC)cc3OC)nc3ccccc23)cc1`, for which the “activity change, positive = activation” value is inactive: 6.78%.

For `CCOC(=O)c1ccc(NC(=O)c2ccc3c(c2)CCN3S(=O)(=O)c2ccc(Cl)cc2)cc1`, the “activity change, positive = activation” value was inactive: -7.46%.

In the case of `COc1ccc(CCNC(=O)Cn2nnc(-c3cccc(C(F)(F)F)c3)n2)cc1OC`, the “activity change, positive = activation” value was inactive: -6.95%.
